According to the supplement of paper PMC9433436:
± gives the standard deviation of the averaged measurements. In all, about 4,100 sequences were measured (“relative kcat/Km (krel) vs genomic leader AAAGAU”: median about 1.7, highest 2% from about 6.5 on). This is a selection; strong and weak results do not stand in their true shares.

Target: T1, E. coli RNase P holoenzyme (M1 P RNA + rnpA protein) (UniProt P0A7Y8)
T1 sequence: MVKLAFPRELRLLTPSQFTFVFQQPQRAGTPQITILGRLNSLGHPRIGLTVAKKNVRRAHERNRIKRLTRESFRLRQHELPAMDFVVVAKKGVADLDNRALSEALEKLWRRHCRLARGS
Experiment: relative kcat/Km (krel) vs genomic leader AAAGAU (relative (reference leader = 1)); higher = faster RNase P cleavage
Protocol: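 HTS-Kin: a pool of ptRNA-Met (21C construct) with all 4096 combinations of 5' leader nucleotides N(-6) to N(-1) was processed in vitro by E. coli RNase P (P RNA + rnpA/C5 protein) under multiple-turnover conditions at 37 C, pH 8, 17.5 mM MgCl2. Residual substrate was Illumina-sequenced at several fractions reacted, and relative kcat/Km (krel) was computed by internal competition kinetics, calibrated to the genomic leader (AAAGAU = 1). The listed hexamer is the varied N(-6)..N(-1) leader (DNA letters), and it sits between a fixed 5' stem-loop flank (GCAUGCACGAAAGUGCGUGCUAUGAA) and the mature tRNA-Met starting GGCUACGUAGCUCAGUUGG. Two technical replicates are averaged.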

[1] = fraction of substrate reacted: ~13-16% (15.68% repeat 1, 13.17% repeat 2)
[2] = fraction of substrate reacted: ~26-29% (28.66% repeat 1, 26.4% repeat 2)
[3] = fraction of substrate reacted: ~9-10% (9.79% repeat 1, 9.1% repeat 2)

Row | Sequence | relative kcat/Km [1] | relative kcat/Km [2] | relative kcat/Km [3]
1 | AATCAG | 0.468 ± 0.24 | 1.9 ± 0.11 | –
2 | GTTGAC | 3.28 ± 0.96 | 4.3 ± 1.8 | 2.56 ± 0.24
3 | CCAGCA | 0.452 ± 0.45 | 0.927 ± 0.46 | 1.37 ± 0.54
4 | TTGATC | 2.1 ± 0.3 | 2.5 ± 0.46 | 2.19 ± 1.3
5 | TTCGGA | – | 1.79 ± 1 | –
6 | GGGTCC | 0.434 ± 0.14 | 0.769 ± 0.49 | –
7 | TCTCAG | 1.21 ± 0.028 | 2.83 ± 1.1 | –
8 | CCGACA | – | 0.842 ± 0.8 | 0.997 ± 0.31
9 | ACTTGG | 0.9 ± 0.092 | 0.897 ± 0.036 | 0.844 ± 0.79
10 | CGTACG | – | 1.43 ± 0.11 | –
11 | TCGACC | 2.32 ± 1.3 | 3 ± 0.92 | 3.05 ± 1.3
12 | GAGGGC | – | 1.59 ± 1.5 | 0.814 ± 0.78
13 | TAGGAG | – | 0.884 ± 0.25 | –
14 | ACACCT | 1.66 ± 0.33 | 2.53 ± 1.6 | 2.6 ± 1.3
15 | CGGTAA | 0.278 ± 0.2 | 0.91 ± 0.35 | 0.528 ± 0.29
16 | AATCAC | 2.63 ± 0.078 | 4.12 ± 1.3 | 2.09 ± 1.1
17 | CGGCAG | – | 0.588 ± 0.57 | 0.577 ± 0.32
18 | CTCGAC | – | – | 5.18 ± 1.3
19 | ACTAGC | 1.48 ± 0.4 | 2.58 ± 0.78 | 1.98 ± 0.29
20 | TGTCCT | 2.41 ± 0.25 | 3.5 ± 1.6 | 2.14 ± 0.73
21 | TGCCTA | 1.92 ± 0.26 | 2.81 ± 1.7 | 1.59 ± 0.41
22 | CGACTC | 1.45 ± 0.46 | 1.66 ± 0.54 | 1.3 ± 0.15
23 | CATCCG | – | 0.772 ± 0.13 | –
24 | TTCCAA | 6.03 ± 0.65 | 8.56 ± 3.5 | 4.78 ± 1.8
25 | GCGTCG | – | 0.845 ± 0.14 | –
26 | CCGATG | – | 1.14 ± 0.71 | –

Row | Sequence | relative kcat/Km [1] | relative kcat/Km [2] | relative kcat/Km [3]
27 | ATTTCT | 3.56 ± 0.7 | 4.49 ± 1.6 | 3.13 ± 0.84
28 | CCATTC | 2.95 ± 0.95 | 3.79 ± 1.1 | 2.03 ± 0.64
29 | GCGTGC | 1.35 ± 0.022 | 0.876 ± 0.036 | 1.26 ± 0.1
30 | CAGGGC | 0.734 ± 0.28 | 0.809 ± 0.4 | –
31 | CTCGCT | 2.61 ± 0.72 | 3.67 ± 0.94 | 1.9 ± 0.4
32 | GAGTCA | 1.608 ± 0.016 | 1.76 ± 0.32 | 1.56 ± 0.96
33 | AAACGA | 1.89 ± 0.67 | 2.21 ± 0.41 | 2.12 ± 0.92
34 | CCCACG | – | 2.57 ± 0.54 | 0.913 ± 0.26
35 | CGTCGA | 3.93 ± 0.86 | 5.82 ± 2.7 | 2.65 ± 0.67
36 | TTCCTG | – | 1.68 ± 1.1 | –
37 | GAGGAC | 1.18 ± 0.34 | 1.69 ± 0.53 | 0.554 ± 0.041
38 | ACGCGC | 1.07 ± 0.86 | 1.84 ± 0.96 | 1.29 ± 0.8
39 | CACCAA | 4.26 ± 1.8 | 5.67 ± 2.1 | 3.7 ± 1.4
40 | TCATTA | 2.44 ± 0.056 | 3.48 ± 1.3 | 2.21 ± 1.8
41 | ATTCCT | 2.19 ± 0.27 | 2.93 ± 1.1 | 1.97 ± 0.65
42 | ACCAGA | 4.14 ± 0.99 | 5.9 ± 2 | 3.67 ± 1.1
43 | TCGTGC | 1.59 ± 0.089 | 2.34 ± 0.31 | 1.59 ± 1.2
44 | GGCGAC | 2.47 ± 1.2 | 4.08 ± 1.4 | 2.53 ± 0.11
45 | TGTCTC | 3.34 ± 0.98 | 4.13 ± 1.7 | 2.62 ± 0.093
46 | CGGATC | 1.03 ± 0.13 | 1 ± 0.26 | 0.825 ± 0.23
47 | GTATAG | 1.79 ± 0.37 | 3.69 ± 0.99 | –
48 | CAGCTC | 1.8 ± 0.74 | 2.37 ± 0.79 | 1.95 ± 0.3
49 | TCGGAA | 1.23 ± 0.93 | 1.33 ± 0.09 | 1.2 ± 1.2
50 | CATGAC | 3.84 ± 1.1 | 4.61 ± 1.3 | 3.37 ± 1.7
51 | CTAACC | 1.02 ± 0.13 | 1.33 ± 0.47 | 1.72 ± 1
52 | TCTCTA | 2.15 ± 0.45 | 2.59 ± 1.1 | 2.46 ± 0.58

Row | Sequence | relative kcat/Km [1] | relative kcat/Km [2] | relative kcat/Km [3]
53 | GAGCCT | 1.57 ± 0.59 | 2.01 ± 0.96 | 1.72 ± 0.7
54 | GAACGA | 2.3816 ± 7.8e-05 | 3.08 ± 0.87 | 2.48 ± 1.1
55 | CGTTCC | 3.24 ± 1.6 | 4.59 ± 2.1 | 2.71 ± 0.33
56 | GGGCGG | 0.428 ± 0.31 | 1.13 ± 0.15 | 0.411 ± 0.1
57 | GATTTT | 2.66 ± 0.3 | 4.09 ± 1.4 | 1.83 ± 0.22
58 | TGAGGT | – | 2.21 ± 0.55 | –
59 | ATCGTT | 2.08 ± 0.23 | 2.84 ± 1.1 | 2.06 ± 1.1
60 | ATCAGG | – | 1.41 ± 0.062 | 0.528 ± 0.016
61 | ATCGAT | 3 ± 0.7 | 3.36 ± 1.2 | 1.99 ± 0.67
62 | TTGCAG | – | 1.37 ± 0.19 | –
63 | AAGGTA | – | – | 0.672 ± 0.17
64 | GCCTTA | 3.35 ± 0.54 | 5.21 ± 1.5 | 2.94 ± 1.2
65 | ACGCCG | – | 1.03 ± 0.27 | –
66 | GAGAAT | 2.37 ± 0.3 | 3.82 ± 1.4 | 1.7 ± 1.1
67 | AGCCGC | 2.5 ± 0.098 | 4.02 ± 1.1 | 3.07 ± 1.3
68 | GGCTAA | 2.32 ± 0.78 | 3.19 ± 0.8 | 2.12 ± 0.85
69 | CAAGAC | 2 ± 0.92 | 2.72 ± 0.92 | 1.96 ± 0.11
70 | GAAAAG | – | 0.958 ± 0.54 | –
71 | GAGCTA | 0.367 ± 0.083 | 1.29 ± 0.63 | 1.12 ± 0.23
72 | CGAGAG | – | 0.931 ± 0.1 | 0.809 ± 0.14
73 | TAAGAG | 0.587 ± 0.16 | 2 ± 0.57 | –
74 | AGTGAG | 0.583 ± 0.48 | 0.906 ± 0.36 | –
75 | GCGATA | 1.51 ± 0.55 | 1.3 ± 0.22 | 1.52 ± 0.59
76 | AAGCAG | – | 1.22 ± 0.47 | 0.388 ± 0.27
77 | CCGCAA | 1.91 ± 0.27 | 2.59 ± 0.5 | 2.37 ± 1.4
78 | GCACTA | 0.962 ± 0.041 | 1.81 ± 1.3 | 1.73 ± 0.65

Row | Sequence | relative kcat/Km [1] | relative kcat/Km [2] | relative kcat/Km [3]
79 | GGAAGG | 0.635 ± 0.14 | 1.44 ± 0.73 | 0.692 ± 0.52
80 | CGGAGA | 1.07 ± 1 | 1.81 ± 0.39 | 1.25 ± 0.02
81 | CTGTCC | 1.45 ± 0.52 | 2.28 ± 0.82 | 0.844 ± 0.78
82 | GACTGT | 1.18 ± 0.32 | 1.09 ± 0.23 | 0.875 ± 0.79
83 | TAGCTC | 2.26 ± 0.41 | 2.63 ± 0.76 | 2.39 ± 1.3
84 | ACGGAA | 1.923 ± 0.0075 | 1.49 ± 0.93 | 1.59 ± 0.25
85 | TGACAC | 4.21 ± 0.43 | 5.94 ± 2.2 | 3.63 ± 1.5
86 | GATATC | 1.42 ± 0.26 | 2.39 ± 0.44 | 0.942 ± 0.075
87 | TTTCGA | 3.93 ± 0.48 | 5.75 ± 1.8 | 3.73 ± 2.1
88 | GGGCTC | – | 0.945 ± 0.2 | 1.23 ± 0.8
89 | CCGTCG | 0.981 ± 0.2 | 1.55 ± 0.7 | –
90 | TAGGCG | – | 0.742 ± 0.13 | 0.286 ± 0.26
91 | CAGAGT | – | 0.537 ± 0.3 | –
92 | TGAAAT | 2.22 ± 0.68 | 3.8 ± 1.3 | 1.22 ± 0.26
93 | GCGGAA | 1.02 ± 0.075 | 0.77 ± 0.11 | 0.773 ± 0.073
94 | CAAACC | 1.32 ± 0.45 | 1.1 ± 0.24 | 1.98 ± 1.5
95 | CGCCAG | 2.08 ± 1 | 3.05 ± 0.88 | 1.79 ± 0.53
96 | GTTCCA | 1.26 ± 0.4 | 1.84 ± 0.4 | 1.15 ± 0.2
97 | ACTAAG | 0.788 ± 0.28 | 1.59 ± 0.055 | 1.74 ± 0.94
98 | ACACCC | 1.78 ± 0.18 | 2.2 ± 1.1 | 1.52 ± 0.034
99 | GTTATC | 2.01 ± 0.18 | 2.99 ± 1.2 | 2.26 ± 0.74
100 | GTAGCT | 0.991 ± 0.27 | 1.38 ± 0.29 | 1.18 ± 0.2
101 | AGCGTA | 1.21 ± 0.14 | 1.7 ± 0.53 | –
102 | CGTCGG | – | 0.654 ± 0.34 | 0.274 ± 0.14
103 | GCGTTA | 0.972 ± 0.54 | 1.49 ± 0.11 | 0.782 ± 0.046
104 | ATTTGC | 3.69 ± 0.87 | 5.35 ± 1.6 | 3.17 ± 0.9
